# Measured values as given in PubChem BioAssay AID540267 (National Center for Advancing Translational Sciences (NCATS), 2011).
# Out of some 340,000 compounds screened, about 530 (0.16%) were called active. The inconclusive results got no clear call from the source; some entries with a clear call stand among them for comparison. Cut-off read from the data, not from the text of the source: active = activity change below about -80%; inconclusive = between about -30% and that limit; inactive = weaker than that.
# Assay: Small Molecules that selectively kill Giardia lamblia: qHTS;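 note: parasites exposed to compound for two days anaerobically before the ATP read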
# Settings: Giardia lamblia trophozoite viability; at 7.66 µM; stronger effect = lower value
# Procedure, shortened: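 Anaerobic 48 hrs incubation at 37 deg C of 100 trophozoites/well with test compounds; ATPLite 1-Step luminescence, 15-30 min RT, reports cellular ATP as viability.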
# % is set by controls: 0 for no effect and ±100 for the full control effect.
row,Compound,activity change
1,O=C(O)COn1c(-c2ccccc2)nc2ccc([N+](=O)[O-])cc21,inactive: -8.29%
2,NC(=O)CC(NC(=O)Cc1ccc(Br)cc1)c1ccc(NCc2ccccn2)c([N+](=O)[O-])c1 (stereo not given),inconclusive: -40.8% [inhibitor]
3,Cc1cc(C=C2C(=O)c3ccccc3C2=O)c(C)n1C,inactive: -9.37%
4,NNC(=O)c1ccccc1-n1cccc1,inconclusive: -34% [inhibitor]
5,COc1ccccc1CNC(=O)C(C)Sc1ccsc1[N+](=O)[O-] (stereo not given),inconclusive: -49.2% [inhibitor]
6,O=C(c1cccc(C(F)(F)F)c1)c1c[nH]c(C(=O)NCC2CCCO2)c1 (stereo not given),inactive: 6.71%
7,O=C(NNC(=O)C1COc2ccccc2O1)c1ccccc1O (stereo not given),inactive: -1.61%
8,COc1ccc(CC(=O)Nc2ccc(/C(C)=N/NC(=O)c3ccc(OC)cc3OC)cc2)cc1,inconclusive: -44% [inhibitor]
9,Cc1ccc(CNC(=O)c2ccccc2NC(=O)C2=CSCCO2)cc1,inconclusive: -34% [inhibitor]
10,Cn1c(NN)nc2c1c(=O)n(Cc1ccccc1)c(=O)n2C,inconclusive: -35.6% [inhibitor]
11,Cc1nnc2ccc(-c3cccc(NS(=O)(=O)c4ccccc4[N+](=O)[O-])c3)nn12,inconclusive: -32.1% [inhibitor]
12,COc1ccc(/C=C/C(=O)N2CCCc3ccccc32)cc1,inconclusive: -32.6% [inhibitor]
13,CCOc1nc(CC)nc(NC(=O)NS(=O)(=O)c2ccccc2Cl)n1,inconclusive: -31.9% [inhibitor]
14,CC(OC(=O)c1ccc([N+](=O)[O-])o1)C(=O)NC1CCCCC1C (stereo not given),inconclusive: -31.7% [inhibitor]
15,O=C(NN=Cc1ccc(Cl)cc1Cl)C1CC1,inactive: 21.6%
16,O=C(CCC(=O)c1cccs1)NCc1ccc(Cl)cc1,inactive: 3.13%
17,O=C(NC(=O)c1ccccc1)Nc1ccccc1,inactive: -23.9%
18,COc1ccc(Nc2nc(-c3ccc4c(c3)NC(=O)CO4)cs2)cc1,inconclusive: -30.9% [inhibitor]
19,CCCNC(=O)Nc1nnc(C2CC2)s1,inconclusive: -30.5% [inhibitor]
20,CC(C)C(C)NC(=O)CN1C(=O)NC(C)(c2ccc3ccccc3c2)C1=O (stereo not given),inconclusive: -31.8% [inhibitor]
21,CN(C)c1ccc(/C=N/NC(=O)CNC(=O)/C=C/c2ccco2)cc1,inactive: 2.75%
22,CCN(C(=O)CN1C(=O)S/C(=C\c2cccc(Cl)c2)C1=O)C1CCS(=O)(=O)C1 (stereo not given),inactive: 2.92%
23,Cc1cccc(C)c1NC(=O)CSc1nc2ccccc2c(=O)[nH]1,inactive: -4.8%
24,C[C@@H]1[C@H]2[C@@H](O[C@@H]3O[C@H](CO)[C@@H](O)[C@H](O)[C@H]3O)OC=C(C(=O)O)[C@H]2C[C@@H]1O,inconclusive: -45.3% [inhibitor]
25,CC(C)=CCC/C(C)=C/CNC(=O)C[C@H]1C[C@H](C(=O)N2CCCCC2)[C@@]2(C)c3[nH]c4ccc(Cl)cc4c3CCN2C1=O,inconclusive: -31.9% [inhibitor]

row,Compound,activity change
1,O=C(COC(=O)c1cc(S(=O)(=O)N2CCCCC2)ccc1N1CCOCC1)c1ccccc1,inactive: 4.89%
2,N#CCC(=O)NC(=O)NCC1CC1,inconclusive: -33.1% [inhibitor]
3,CN(c1ccccc1)c1cc(=O)[nH]c(=O)[nH]1,inactive: 0.851%
4,COc1cccc(-c2nn(-c3ccccc3)cc2CN(C)C(C)c2ccncn2)c1 (stereo not given),inconclusive: -34.1% [inhibitor]
5,O=c1cccc(-c2ccccc2)[nH]1,inconclusive: -49.9% [inhibitor]
6,CS(=O)(=O)c1ncc(Cl)c(C(=O)N2CCN(c3cccc(Cl)c3)CC2)n1,inconclusive: -36.7% [inhibitor]
7,O=C(CCN=C1NS(=O)(=O)c2ccccc21)OCC(=O)c1ccc(F)c(F)c1,inconclusive: -50% [inhibitor]
8,Cc1ccc([C@@H]2CC=C(C(=O)O)[C@H](c3cccc(Cl)c3)N2S(=O)(=O)c2ccccc2C)cc1,inconclusive: -33.5% [inhibitor]
9,Cc1nn(CC(=O)N2c3ccccc3NC(=O)C2(C)C)c(C)c1[N+](=O)[O-],inactive: -2.25%
10,COCCn1c(=NC(=O)CSC(C)=O)sc2cc(OC)ccc21,inactive: 18.3%
11,CC(=O)Nc1ccc(NC(=O)c2cc(-n3cnnc3)ccc2Cl)cc1,inconclusive: -30.6% [inhibitor]
12,CCOP(=O)(OCC)c1nc(/C=C/c2ccccc2)oc1NCc1ccccc1,inactive: -5.99%
13,CCc1ccc2[nH]c(=O)c(CN(Cc3ccco3)C(=S)NCC3CCCO3)cc2c1 (stereo not given),inactive: 0.121%
14,CN(C)CCN(C(=O)c1ccc2ccccc2c1)c1nc2ccc(Br)cc2s1,inconclusive: -34.6% [inhibitor]
15,COc1ccc(C(=O)NCC(=O)Nc2ccccc2)cc1OC,inactive: -7.21%
16,O=C(NCCc1ccccc1)C(c1ccc(F)cc1)N(C(=O)c1csnn1)C1CC1 (stereo not given),inconclusive: -41.1% [inhibitor]
17,CCc1ccc([C@@H]2CC=C(C(=O)O)[C@H](c3ccc(Cl)cc3)N2S(=O)(=O)c2ccc(C)cc2)cc1,inconclusive: -40.8% [inhibitor]
18,COc1ccc(S(=O)(=O)N2CCN(C(=O)c3ccc(C)o3)CC2)cc1,inactive: 6.85%
19,CCCCNC(=S)N/N=C/c1ccc(C#N)cc1,inconclusive: -43.4% [inhibitor]
20,CCN(CCNC(=O)Cn1c(=O)sc2ccccc21)c1ccccc1,inconclusive: -35.1% [inhibitor]
21,Cn1cnc(NCc2ccccc2)c1[N+](=O)[O-],inconclusive: -31.1% [inhibitor]
22,CC(=O)Nc1ccc(NC(=O)c2c([N+](=O)[O-])cnn2C)cc1,inconclusive: -63.2% [inhibitor]
23,O=C1C(=O)c2ccccc2C(O)=C1CCCCl,inconclusive: -62.9% [inhibitor]
24,Cc1ccc(-c2nc(-c3ccccn3)no2)cc1,active: -90.3%
25,Cc1cc2oc(=O)cc(CN3CCN(S(=O)(=O)c4cccs4)CC3)c2cc1C,inconclusive: -30.5% [inhibitor]
